In article PMC12820563, “FoxP3 forms a head-to-head dimer in vivo and stabilizes its multimerization on adjacent microsatellites”:
The list shows a part of the results.

target: T1, MBP-FoxP1dN (Mus musculus, UniProt P58462 326-579); assay: PD-seq (MBP pull-down with sequencing); 20 mM Tris-HCl pH 7.5, 100 mM NaCl, 1.5 mM MgCl2, 0.4 uM protein, 0.1 uM dsDNA library, 30 min, room temperature, amylose pull-down; high values mean tight binding; conditions: protein: recombinant; tags: His6-MBP; chain copies: 2; dsDNA, one strand shown
T1 sequence: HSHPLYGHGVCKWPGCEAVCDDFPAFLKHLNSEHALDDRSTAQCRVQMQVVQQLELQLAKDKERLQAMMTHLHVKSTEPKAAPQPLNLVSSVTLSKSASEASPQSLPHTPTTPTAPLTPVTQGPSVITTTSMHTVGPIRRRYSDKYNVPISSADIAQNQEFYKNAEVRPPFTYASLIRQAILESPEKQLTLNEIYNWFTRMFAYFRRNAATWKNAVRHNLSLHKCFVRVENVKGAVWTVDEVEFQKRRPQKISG
In short: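 E. coli-expressed mouse FoxP3 or FoxP1 fragment, N-terminus removed and tagged with His6-MBP, was used at 0.4 µM against 0.1 µM of a Klenow-filled degenerate double-stranded DNA library. After 30 min at room temperature in Tris pH 7.5 buffer with NaCl and MgCl2, complexes were pulled down on amylose resin and washed three times. Binding is pull-down over input reads-per-million enrichment from pooled replicates of the proteinase K-released, PCR-barcoded, Illumina-sequenced DNA.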

With “GATGATTGTTCTCCCAGCTGATGAATTAAGGGAGTCGAGTAAACAAATTTTCCTAATCTTTCTGTTCAAGCGCCATCTAC” as the sequence, how does the binding signal read?
Its binding signal is 0.82 RPM ratio (pull-down/input).

Which binding signal does the source give for “GATGATTGTTCTCCCAGCTGATGAATTGACATGTTCGAGTAAACAAATTTTCCTAATCTTTCTGTTCAAGCGCCATCTAC” here?
The binding signal was 1.31 RPM ratio (pull-down/input).

For “GATGATTGTTCTCCCAGCTGATGAATTTCCAAAGTCGAGTAAACAAATTTTCCTAATCTTTCTGTTCAAGCGCCATCTAC”, which binding signal is on record?
The binding signal was 0.782 RPM ratio (pull-down/input).

With “GATGATTGTTCTCCCAGCTGATGAATTGGAGCCCTCGAGTAAACAAATTTTCCTAATCTTTCTGTTCAAGCGCCATCTAC” as the sequence, how does the binding signal read?
Its binding signal is 0.719 RPM ratio (pull-down/input).

“GATGATTGTTCTCCCAGCTGATGAATTCTATAAATCGAGTAAACAAATTTTCCTAATCTTTCTGTTCAAGCGCCATCTAC” was tested. Which binding signal did it give?
The binding signal was 1.15 RPM ratio (pull-down/input).

“GATGATTGTTCTCCCAGCTGATGAATTGTTGCGATCGAGTAAACAAATTTTCCTAATCTTTCTGTTCAAGCGCCATCTAC” was tested. Which binding signal did it give?
The binding signal was 1.51 RPM ratio (pull-down/input).

For “GATGATTGTTCTCCCAGCTGATGAATTCGGTATTTCGAGTAAACAAATTTTCCTAATCTTTCTGTTCAAGCGCCATCTAC”, which binding signal is on record?
The binding signal was 0.946 RPM ratio (pull-down/input).

How did the binding signal turn out when “GATGATTGTTCTCCCAGCTGATGAATTCCCCGACTCGAGTAAACAAATTTTCCTAATCTTTCTGTTCAAGCGCCATCTAC” was run?
The binding signal was 0.768 RPM ratio (pull-down/input).

With “GATGATTGTTCTCCCAGCTGATGAATTTATTGTTTCGAGTAAACAAATTTTCCTAATCTTTCTGTTCAAGCGCCATCTAC” as the sequence, how does the binding signal read?
Its binding signal is 2.09 RPM ratio (pull-down/input).

How did the binding signal turn out when “GATGATTGTTCTCCCAGCTGATGAATTCTATCGGTCGAGTAAACAAATTTTCCTAATCTTTCTGTTCAAGCGCCATCTAC” was run?
The binding signal was 0.924 RPM ratio (pull-down/input).

Which binding signal does the source give for “GATGATTGTTCTCCCAGCTGATGAATTGTTTAATTCGAGTAAACAAATTTTCCTAATCTTTCTGTTCAAGCGCCATCTAC” here?
The binding signal was 1.46 RPM ratio (pull-down/input).

Which binding signal does the source give for “GATGATTGTTCTCCCAGCTGATGAATTCGTGTCCTCGAGTAAACAAATTTTCCTAATCTTTCTGTTCAAGCGCCATCTAC” here?
The binding signal was 0.835 RPM ratio (pull-down/input).

Which binding signal does the source give for “GATGATTGTTCTCCCAGCTGATGAATTTACATACTCGAGTAAACAAATTTTCCTAATCTTTCTGTTCAAGCGCCATCTAC” here?
Its binding signal is 1.53 RPM ratio (pull-down/input).

For “GATGATTGTTCTCCCAGCTGATGAATTTGTATCATCGAGTAAACAAATTTTCCTAATCTTTCTGTTCAAGCGCCATCTAC”, which binding signal is on record?
Its binding signal is 1.51 RPM ratio (pull-down/input).

Which binding signal does the source give for “GATGATTGTTCTCCCAGCTGATGAATTTCTGTCATCGAGTAAACAAATTTTCCTAATCTTTCTGTTCAAGCGCCATCTAC” here?
Its binding signal is 1.15 RPM ratio (pull-down/input).

Which binding signal does the source give for “GATGATTGTTCTCCCAGCTGATGAATTGTATATTTCGAGTAAACAAATTTTCCTAATCTTTCTGTTCAAGCGCCATCTAC” here?
The binding signal was 1.52 RPM ratio (pull-down/input).

“GATGATTGTTCTCCCAGCTGATGAATTGCAAAGGTCGAGTAAACAAATTTTCCTAATCTTTCTGTTCAAGCGCCATCTAC” was tested. Which binding signal did it give?
The binding signal was 1.04 RPM ratio (pull-down/input).

“GATGATTGTTCTCCCAGCTGATGAATTACTCTTGTCGAGTAAACAAATTTTCCTAATCTTTCTGTTCAAGCGCCATCTAC” was tested. Which binding signal did it give?
The binding signal was 0.971 RPM ratio (pull-down/input).

For “GATGATTGTTCTCCCAGCTGATGAATTTCATCATTCGAGTAAACAAATTTTCCTAATCTTTCTGTTCAAGCGCCATCTAC”, which binding signal is on record?
Its binding signal is 0.911 RPM ratio (pull-down/input).

“GATGATTGTTCTCCCAGCTGATGAATTGGTCTCATCGAGTAAACAAATTTTCCTAATCTTTCTGTTCAAGCGCCATCTAC” was tested. Which binding signal did it give?
The binding signal was 0.97 RPM ratio (pull-down/input).

How did the binding signal turn out when “GATGATTGTTCTCCCAGCTGATGAATTACCTACGTCGAGTAAACAAATTTTCCTAATCTTTCTGTTCAAGCGCCATCTAC” was run?
Its binding signal is 0.914 RPM ratio (pull-down/input).

With “GATGATTGTTCTCCCAGCTGATGAATTAAAACGATCGAGTAAACAAATTTTCCTAATCTTTCTGTTCAAGCGCCATCTAC” as the sequence, how does the binding signal read?
The binding signal was 0.959 RPM ratio (pull-down/input).

For “GATGATTGTTCTCCCAGCTGATGAATTCTCCGTCTCGAGTAAACAAATTTTCCTAATCTTTCTGTTCAAGCGCCATCTAC”, which binding signal is on record?
The binding signal was 0.849 RPM ratio (pull-down/input).

“GATGATTGTTCTCCCAGCTGATGAATTCGCTCAATCGAGTAAACAAATTTTCCTAATCTTTCTGTTCAAGCGCCATCTAC” was tested. Which binding signal did it give?
The binding signal was 0.977 RPM ratio (pull-down/input).

Which binding signal does the source give for “GATGATTGTTCTCCCAGCTGATGAATTTAACTTTTCGAGTAAACAAATTTTCCTAATCTTTCTGTTCAAGCGCCATCTAC” here?
Its binding signal is 0.855 RPM ratio (pull-down/input).

With “GATGATTGTTCTCCCAGCTGATGAATTTGCTGGCTCGAGTAAACAAATTTTCCTAATCTTTCTGTTCAAGCGCCATCTAC” as the sequence, how does the binding signal read?
The binding signal was 0.872 RPM ratio (pull-down/input).

How did the binding signal turn out when “GATGATTGTTCTCCCAGCTGATGAATTAGCGTAATCGAGTAAACAAATTTTCCTAATCTTTCTGTTCAAGCGCCATCTAC” was run?
The binding signal was 1.41 RPM ratio (pull-down/input).

Which binding signal does the source give for “GATGATTGTTCTCCCAGCTGATGAATTTTTATCTTCGAGTAAACAAATTTTCCTAATCTTTCTGTTCAAGCGCCATCTAC” here?
The binding signal was 1.07 RPM ratio (pull-down/input).

Which binding signal does the source give for “GATGATTGTTCTCCCAGCTGATGAATTCCGACGATCGAGTAAACAAATTTTCCTAATCTTTCTGTTCAAGCGCCATCTAC” here?
The binding signal was 0.781 RPM ratio (pull-down/input).

How did the binding signal turn out when “GATGATTGTTCTCCCAGCTGATGAATTTGCTGGATCGAGTAAACAAATTTTCCTAATCTTTCTGTTCAAGCGCCATCTAC” was run?
The binding signal was 0.925 RPM ratio (pull-down/input).

How did the binding signal turn out when “GATGATTGTTCTCCCAGCTGATGAATTACTATCGTCGAGTAAACAAATTTTCCTAATCTTTCTGTTCAAGCGCCATCTAC” was run?
Its binding signal is 1.05 RPM ratio (pull-down/input).
